{"source": "paper PMC6919601", "about": "“Identification of Plasmodium dipeptidyl aminopeptidase allosteric inhibitors by high throughput screening” (PLoS ONE, 2019)", "note": "Screen size: about 110,000 compounds; about 230 (0.21%) showed an effect of 50% or more. The list shows a part of the results.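 Note: 30 min substrate incubation versus DMSO and 10 µM JCP410 controls.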"}
{"target": "DPAP1 (Plasmodium falciparum, UniProt Q8IIJ9)", "sequence (Q8IIJ9 whole entry, looked up)": "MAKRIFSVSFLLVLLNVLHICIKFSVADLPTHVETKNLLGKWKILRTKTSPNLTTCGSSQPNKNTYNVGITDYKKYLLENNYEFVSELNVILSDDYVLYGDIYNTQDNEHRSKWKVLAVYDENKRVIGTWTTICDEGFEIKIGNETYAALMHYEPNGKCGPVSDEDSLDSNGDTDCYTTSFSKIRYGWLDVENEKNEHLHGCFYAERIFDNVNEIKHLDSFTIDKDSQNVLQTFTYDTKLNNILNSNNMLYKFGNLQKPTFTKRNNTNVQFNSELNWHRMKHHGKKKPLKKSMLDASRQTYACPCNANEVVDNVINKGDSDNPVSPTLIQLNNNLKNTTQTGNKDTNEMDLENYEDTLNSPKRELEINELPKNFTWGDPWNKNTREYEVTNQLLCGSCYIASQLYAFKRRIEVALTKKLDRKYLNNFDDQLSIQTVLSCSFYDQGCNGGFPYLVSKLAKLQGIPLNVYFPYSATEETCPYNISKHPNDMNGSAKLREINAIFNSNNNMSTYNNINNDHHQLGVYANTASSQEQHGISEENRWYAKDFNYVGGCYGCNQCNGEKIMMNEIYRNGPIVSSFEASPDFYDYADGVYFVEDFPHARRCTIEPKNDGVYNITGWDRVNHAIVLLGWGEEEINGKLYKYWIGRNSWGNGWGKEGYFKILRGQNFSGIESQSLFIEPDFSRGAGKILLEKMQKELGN", "assay": "primary screen, percent inhibition; read by cleavage of a fluorogenic dipeptide substrate; higher = more effect of the substance", "parameters": "species or system P. falciparum D10 trophozoite lysates; single well", "units": {"% Inhibition @ 10 uM": "%"}}
{"smiles": "COC(=O)c1cccnc1-n1c(=O)c2cccnc2n(Cc2cccc(C(F)(F)F)c2)c1=O", "% Inhibition @ 10 uM": 3.49}
{"smiles": "CCN(CC)C(=O)Cn1cc(SCc2cccc(F)c2)c2ccccc21", "% Inhibition @ 10 uM": 4.03}
{"smiles": "N#C/N=C(/N)c1sc2nc3c(cc2c1N)CCCCC3", "% Inhibition @ 10 uM": -2.54}
{"smiles": "COc1ccc(C2C(C#N)=C(N)Oc3[nH]nc(C(C)(C)C)c32)cc1OC", "note": "(stereo not drawn)", "% Inhibition @ 10 uM": -1.06}
{"smiles": "COc1ccc(S(=O)(=O)Nc2ccc(NS(=O)(=O)c3ccc(C)cc3)cc2)cc1", "% Inhibition @ 10 uM": -4.15}
{"smiles": "CC(C)CN1C(=O)c2ccccc2C(C(=O)N2CCc3ccccc3C2)C1c1cccs1", "note": "(stereo not drawn)", "% Inhibition @ 10 uM": -5.3}
{"smiles": "CCc1ccc(OCC(=O)Nc2ccc(S(=O)(=O)N3CCCCCC3)cc2)cc1", "% Inhibition @ 10 uM": -7.06}
{"smiles": "CCOc1cccc2cc(S(=O)(=O)c3ccccc3)c(=O)oc12", "% Inhibition @ 10 uM": 3.75}
{"smiles": "CCc1cc2c(cc3c(=O)n(CC(=O)N(C)Cc4ccccc4)ncn32)s1", "% Inhibition @ 10 uM": 0.0198}
{"smiles": "Cc1ccc(C(=O)NCC(O)c2ccccc2)cc1", "note": "(stereo not drawn)", "% Inhibition @ 10 uM": -0.636}
{"smiles": "CCOC(=O)C1(C#N)C(C)(CC)C1(C#N)C(=O)OCC", "note": "(stereo not drawn)", "% Inhibition @ 10 uM": -7.42}
{"smiles": "COc1ccc(C/N=C/c2c(C(=O)O)[nH]c3ccccc23)cc1", "% Inhibition @ 10 uM": -5.8}
{"smiles": "CCCn1c(=O)c2sccc2n2c(CCCC(=O)NC(C)c3ccccc3)nnc12", "note": "(stereo not drawn)", "% Inhibition @ 10 uM": -6.87}
{"smiles": "O=C(Cc1cccc2ccccc12)NCc1ccco1", "% Inhibition @ 10 uM": -1.46}
{"smiles": "Cc1ccc(-c2c(C#N)c(N)nc(C)c2-c2ccccc2)o1", "% Inhibition @ 10 uM": -1.33}
{"smiles": "CC(C)(C)c1ccc(C(=O)Nc2c3c(nn2-c2cccc(Cl)c2)CS(=O)(=O)C3)cc1", "% Inhibition @ 10 uM": 4.65}
{"smiles": "O=C(NCCC1=CCCCC1)c1cc2c(Cl)ccc3c2n1CCO3", "% Inhibition @ 10 uM": 3.47}
{"smiles": "Cc1[nH]c2ccccc2c1CCNCc1cccc(F)c1", "% Inhibition @ 10 uM": -1.38}
{"smiles": "c1ccn(-c2ccc(-c3noc(-c4ccncc4)n3)cc2)c1", "% Inhibition @ 10 uM": -2.63}
{"smiles": "NC(=O)c1c(NC(=O)CSc2ccc(Cl)cc2)sc2c1CCC2", "% Inhibition @ 10 uM": -11.3}
{"smiles": "OCC1CCCN1C1C2CC3CC(C2)CC1C3", "note": "(stereo not drawn)", "% Inhibition @ 10 uM": -0.603}
{"smiles": "CCC(C)NC(=O)c1nn(C)c2c1CS(=O)(=O)c1ccccc1-2", "note": "(stereo not drawn)", "% Inhibition @ 10 uM": -4.42}
{"smiles": "CC(=O)C1=C(C)NC(C)=C(C(C)=O)C1c1cn(-c2ccccc2)nc1-c1cccs1", "% Inhibition @ 10 uM": -5.63}
{"smiles": "Cc1cc(C)cc(NC(=O)/C=C/C(=O)O)c1", "% Inhibition @ 10 uM": -4.31}
{"smiles": "O=S(=O)(c1ccc2c(c1)OCCO2)N1CCCC1", "% Inhibition @ 10 uM": -1.85}
{"smiles": "CCOc1cc(/C=c2\\sc3n(c2=O)C(c2ccccc2OC)C(C(C)=O)=C(C)N=3)ccc1O", "note": "(stereo not drawn)", "% Inhibition @ 10 uM": -2.39}
{"smiles": "O=C(c1cccs1)c1conc1C(=O)c1ccc(Br)cc1", "% Inhibition @ 10 uM": 93.8}
{"smiles": "O=C(O)/C=C/c1ccc(-c2ccc(Br)cc2)o1", "% Inhibition @ 10 uM": -0.415}
{"smiles": "CS(=O)(=O)N(CC(=O)Nc1ccc(S(=O)(=O)N2CCCCC2)cc1)c1cccc(F)c1", "% Inhibition @ 10 uM": -1.89}
{"smiles": "O=C(Nc1ccc(-c2nc3ccccc3o2)cc1)c1cccc2ccccc12", "% Inhibition @ 10 uM": 4.16}
{"smiles": "Cc1ccc(CNC(=O)c2ccc(Br)o2)cc1", "% Inhibition @ 10 uM": 0.0504}
{"smiles": "c1ccc(N(c2ccccc2)c2nc(N3CCCCC3)nc(N3CCOCC3)n2)cc1", "% Inhibition @ 10 uM": 0.968}
{"smiles": "CCOc1ccc2nc(NC(=O)c3nc(S(=O)(=O)Cc4ccccc4)ncc3Cl)sc2c1", "% Inhibition @ 10 uM": 2.41}
{"smiles": "Clc1ccc2oc(-c3ccccc3)c/c(=N\\c3nccs3)c2c1", "% Inhibition @ 10 uM": -1.18}
{"smiles": "O=C(c1nc(-c2cccnc2)no1)N1CCOCC1", "% Inhibition @ 10 uM": 0.372}
{"smiles": "Oc1ccc(C2c3sc(O)nc3SC3C4CCC(C4)C23)cc1", "note": "(stereo not drawn)", "% Inhibition @ 10 uM": 49.1}
{"smiles": "COc1cc(C2CC(=O)N3C(=C2C#N)SCC3(O)c2ccc(F)cc2)cc(OC)c1OC", "note": "(stereo not drawn)", "% Inhibition @ 10 uM": 3.24}
{"smiles": "C=CCN1C=CC(=Cc2cc(C)c3ccccc3[n+]2CC)C=C1", "% Inhibition @ 10 uM": 3.93}
{"smiles": "COc1ccc(-c2cn(-c3ccc(OC)cc3)c(SC)n2)cc1", "% Inhibition @ 10 uM": 6.05}
{"smiles": "Cc1ccc(C)c(NC(=O)CN2CC(c3ccccc3)CC2=O)c1", "note": "(stereo not drawn)", "% Inhibition @ 10 uM": -6.14}
{"smiles": "O=C(C1CCN(S(=O)(=O)c2cccc3nsnc23)CC1)N1CCC(Cc2ccccc2)CC1", "% Inhibition @ 10 uM": -0.00718}
{"smiles": "CC(C)=CCC/C(C)=C/CC(C)(C)C1NCCO1", "note": "(stereo not drawn)", "% Inhibition @ 10 uM": 1.63}
{"smiles": "O=C(Nc1nc(-c2ccc(F)cc2)cs1)C1CCCC1", "% Inhibition @ 10 uM": 1.39}
{"smiles": "CC(NC(=O)c1ccco1)c1ccc2c(c1)OCCCO2", "note": "(stereo not drawn)", "% Inhibition @ 10 uM": -1.84}
{"smiles": "COc1cc(CNC(C)(C)CO)ccc1OCC(=O)NC(C)(C)C", "% Inhibition @ 10 uM": -3.23}
{"smiles": "COc1cc2c(cc1OC)CN(C(=O)c1ccccc1Br)CC2", "% Inhibition @ 10 uM": -11}
{"smiles": "C=CCNC(=O)/C(=C/c1ccc2c(c1)OCO2)NC(=O)c1ccccc1Cl", "% Inhibition @ 10 uM": 7.1}
{"smiles": "COc1cc2c(cc1OC)C(c1ccccc1)=NC(C)(C)C2", "% Inhibition @ 10 uM": 0.162}
{"smiles": "CCc1nn(CC(=O)O)c(=O)c2cc3sccc3n12", "% Inhibition @ 10 uM": -1.6}
{"smiles": "CCOCCCNC(=O)C1CC(=O)N(CCc2ccc(OC)c(OC)c2)C1", "note": "(stereo not drawn)", "% Inhibition @ 10 uM": -1.79}
{"smiles": "CCOC(=O)c1c(C)[nH]c(C)c1S(=O)(=O)N(C)Cc1cnn(-c2ccccc2)c1", "% Inhibition @ 10 uM": -2.68}
